# Laboratory results published in the supplement of paper PMC3334620.
# The full ranking holds about 33,000 sequences; the median of “E-score (-0.5 to 0.5)” is about -0.013, and the highest 2% start at about 0.3. Some of the results follow.
# Target: T1, Msn1 (UniProt P22148)
# T1 sequence: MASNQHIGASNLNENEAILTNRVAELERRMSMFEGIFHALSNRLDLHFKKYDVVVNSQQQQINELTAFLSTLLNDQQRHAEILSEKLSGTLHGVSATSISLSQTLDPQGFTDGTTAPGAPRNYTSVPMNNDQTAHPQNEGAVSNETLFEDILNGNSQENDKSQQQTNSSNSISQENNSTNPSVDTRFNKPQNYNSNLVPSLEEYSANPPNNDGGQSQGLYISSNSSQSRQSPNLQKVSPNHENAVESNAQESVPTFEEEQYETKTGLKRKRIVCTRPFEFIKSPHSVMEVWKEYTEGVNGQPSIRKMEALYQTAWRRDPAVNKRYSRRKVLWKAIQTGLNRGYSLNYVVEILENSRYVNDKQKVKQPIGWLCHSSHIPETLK
# Assay: PBM E-score (8-mer binding enrichment) (E-score (-0.5 to 0.5)); higher = stronger / more preferred TF binding; most listed sequences are background and not binding sites
# Settings: protein concentration: 200 nM; construct: GST-full length
# Procedure, shortened: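 Universal all-10-mer Agilent arrays, double-stranded by primer extension on fresh or once-stripped slides, were probed with about 100-200 nM GST-tagged yeast transcription factors made by PURExpress. Fluorescent anti-GST detected bound protein, and masliner normalised the scans. E-scores from the Universal PBM Analysis Suite were given to each ungapped eight-base word pooled with its reverse complement.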
row,Sequence,PBM E-score
1,AGGGGTAG,-0.37
2,AGACAGTA,0.0366
3,GATTTTCA,0.209
4,AACGTCTG,0.0795
5,CCGCAGGC,0.146
6,CATTCGAC,0.116
7,ACCCTACA,0.0246
8,AAGCAGAA,0.0216
9,AATTGGGC,0.059
10,CCTAGTGC,0.0426
11,AAGCCACT,-0.157
12,ACCCCTCC,-0.207
13,ACGAGACT,-0.0395
14,CTAGCAAA,0.0474
15,AAGGAGAT,-0.164
16,AGAACGCC,0.00504
17,AATGTAAT,0.193
18,CCGCGTCC,0.271
19,AATGCAAA,-0.035
20,GATTAACC,0.0184
21,GGCATGAA,0.0635
22,ACACCCTG,-0.0462
23,CCCCCGTC,-0.322
24,AATTCTCG,0.132
25,GGCATCTA,0.0452

row,Sequence,PBM E-score
1,GGACGTCA,0.0166
2,ACAAACTA,0.243
3,ATTCTTAG,0.077
4,CTGTAAAA,0.113
5,GCTACTCC,-0.102
6,ACAGTATA,0.137
7,AGCTCGAT,0.0123
8,GATCTGGA,-0.0195
9,GAAGCTAA,-0.117
10,GCTATCAA,0.041
11,CGCGCGTA,-0.0102
12,GTCTACCA,-0.0184
13,TGTCTCAA,0.384
14,AACAAATC,0.0327
15,AGGTTATG,-0.00368
16,AAAAAATA,0.103
17,AGTTCTCA,-0.00554
18,TATACCAA,0.102
19,CGGCGAAG,-0.00612
20,GTATTGAA,0.198
21,TCTGGCAA,0.123
22,CTCTCTAC,-0.0266
23,CCGACACG,-0.0249
24,ATGGGTGA,-0.0644
25,GTTCCACA,-0.118

row,Sequence,PBM E-score
1,CGGTCGCA,-0.0568
2,GGGCACCA,-0.208
3,CACGCCGA,-0.0169
4,CAAATGGG,0.167
5,CGCAGGCA,-0.108
6,CCAACCAG,-0.191
7,ATACGTAA,0.156
8,ACTGGTTC,-0.0366
9,CCGCTGCG,-0.148
10,ACTATTAT,0.125
11,GGAGCCAC,-0.369
12,ATGGTCTC,-0.102
13,ATCGAGCA,-0.147
14,AATAGATA,0.211
15,AATGTTGT,-0.0333
16,CTCGCGAG,0.112
17,GTCACGTA,0.053
18,CTCTCCCC,-0.213
19,CGTCACGA,0.107
20,AGGCACTC,-0.119
21,GCTTTTCA,-0.128
22,CGGCTACA,-0.136
23,AGTAAGTA,0.127
24,ACCCTGTC,-0.134
25,AATCCGGG,-0.133

row,Sequence,PBM E-score
1,CGGTCCCA,-0.185
2,CCGGCGAA,0.139
3,ATGGAATG,0.078
4,ACTGTATC,-0.033
5,AACGCACC,-0.215
6,ATACAGTC,-0.0845
7,GGAAATAA,0.163
8,AAAAGGGG,-0.213
9,ATCTTCGC,-0.0539
10,CGGGTTAA,0.0559
11,CGCCATCA,-0.106
12,GGGGTGTA,-0.0223
13,AGCACCTA,-0.236
14,CATGACGG,-0.02
15,TCGTAGAA,-0.085
16,ATAGGTGC,-0.176
17,CCCCGGCA,-0.201
18,AGGCATAG,0.0217
19,CATTACAG,0.0858
20,CGAGATAA,0.162
21,ACACATGA,0.0926
22,ATAGCGTG,-0.186
23,ATTGATTC,0.0911
24,AGGATAGC,-0.167
25,AAATGGTG,0.017

row,Sequence,PBM E-score
1,TCAACTGA,0.117
2,ACCGTCTG,-0.223
3,AACAGAAC,0.0585
4,CACCTTAC,-0.0263
5,TAGAAGGA,-0.21
6,AGGCTCTG,-0.0692
7,TATCCAGA,0.019
8,CCGGGCCG,-0.199
9,AACCGGGT,-0.3
10,ACACAGAA,0.0219
11,CAGGTCAG,-0.19
12,GCAGGTCA,-0.125
13,GGAAACGA,0.015
14,AAGCAGCC,-0.146
15,AGAATTAA,0.0398
16,TCCGCCGA,0.0597
17,AATGCCAT,0.0497
18,AACCGGTT,-0.0585
19,TCATATGA,0.297
20,ACGCTCTC,-0.196
21,GTAATTAA,0.144
22,CTAACGTA,-0.037
23,GGTATCTA,-0.061
24,AGAGTGAC,-0.173
25,CCTAATGA,-0.0327

row,Sequence,PBM E-score
1,CTATGTCA,0.167
2,ACTATTGG,0.0505
3,CGTTGAGA,0.0512
4,ACAACTTG,0.103
5,AGGCTTTC,0.0116
6,ACACCACA,0.0583
7,ACCCTTGC,-0.287
8,GATATAAA,0.101
9,GATTATGC,-0.221
10,ACGGCAAC,-0.0165
11,AAGAACCT,-0.031
12,CCCGAGCG,0.0341
13,CTACTAAG,0.0126
14,GTAGTCTA,0.0245
15,CGGTACTA,-0.0247
16,TGCATACA,0.181
17,ATCCCGAA,0.164
18,TAAATTGA,0.188
19,AGAGCATG,-0.101
20,AATGTTCT,0.098
21,AGTAAACT,0.008
22,GCGGACGA,0.161
23,ACCTGAAG,-0.113
24,AGCGCGTA,0.0604
25,AAATAGGT,0.0357

row,Sequence,PBM E-score
1,AAGTCATG,0.205
2,ACACATTC,0.11
3,CACTGAGA,-0.0419
4,AAATGAGA,-0.0056
5,CGGCAGAG,-0.0649
6,AATCGTTG,0.0294
7,AGAGGGAA,-0.118
8,CCGCAACC,-0.182
9,CCACTGAA,-0.0421
10,CATTAGCC,-0.0526
11,AGCCGACC,-0.216
12,ACGAGATG,0.0352
13,GCTCTCTA,-0.264
14,ATGCGATG,-0.0419
15,GCGTAAAA,0.028
16,CGTTGAAA,0.059
17,CTTTTAGC,0.0227
18,TCACCAAA,0.0099
19,AACTCTAA,0.141
20,GGATGATA,-0.0756
21,CTGGCCAG,-0.179
22,GCGAGCAA,-0.0674
